# Assay results reported in PubChem BioAssay AID485281 (National Center for Advancing Translational Sciences (NCATS), 2010).
# Among all 350,000 compounds or so, about 260 (0.074%) were called active. The shares of active, inactive and inconclusive entries below differ from those in the screen. Calls come from the whole dose curve; as a rule, active = well fitted inhibition curve with a large enough effect; inconclusive = small, poorly fitted or top-dose-only effect; inactive = no such curve, though single readings can be large or run the other way. Potencies beside an inconclusive call are fits to weak or partial responses and may not hold up.
# Molecular target: Ferritin light chain (Equus caballus) (UniProt P02791)
# Test: qHTS Assay for Identification of Novel General Anesthetics; note: nearly all actives have a fitted effect of over 20% in size
# Conditions: apoferritin/1-aminoanthracene competitive binding, fluorescence; activity change, negative = displacement: at 77.5 µM (top of the series)
# Method in brief: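 Horse-spleen apoferritin (10 uM) was mixed with 50% saturated 1-aminoanthracene in PBS, exposed to compounds for 10 min at room temperature, and read for fluorescence (ex 380 nm, em 535 nm). Competitive displacement was fitted with a four-parameter Hill equation.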
# % is set by controls: 0 for no effect and ±100 for the full control effect; potency is the fitted concentration of half-maximal effect; tags give direction and shape of the fitted curve.
# Chain of UniProt P02791 (P02791 whole entry, looked up): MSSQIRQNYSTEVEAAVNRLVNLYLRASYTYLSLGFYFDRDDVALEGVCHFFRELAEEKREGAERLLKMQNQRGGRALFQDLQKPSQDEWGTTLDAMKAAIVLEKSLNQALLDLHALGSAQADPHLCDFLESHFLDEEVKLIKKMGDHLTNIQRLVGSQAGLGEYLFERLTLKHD
SMILES,Potency,"activity change, negative = displacement"
COc1ccc(/C=C2\N=C3CCCCCN3C2=O)cc1OC,"inconclusive: 50.1 µM [inhibitor, single point]",–
Cc1ccc(NC(=O)N2CCc3c(sc4c3CCCC4)C2c2ccccc2)cc1F (configuration not stated),–,inactive: 40.6%
CSc1ncc(C(=O)NCc2ccccc2Cl)c(C(F)(F)F)n1,"inconclusive: 39.8 µM [inhibitor, single point]",–
CC1=C(C(=O)OCc2ccccc2)C(c2ccc([N+](=O)[O-])cc2)NC(=O)N1C (configuration not stated),"inconclusive: 31.6 µM [inhibitor, partial curve]",–
CCCCN(C)C(=O)c1ccc2c(c1)N(Cc1cccc(Cl)c1)C(=O)c1ccccc1S2=O (configuration not stated),"inconclusive: 12.6 µM [inhibitor, partial curve]",–
CC(=O)c1cccc(OCc2cc(C(=O)NC3CCN(Cc4ccccc4)CC3)no2)c1,"inconclusive: 35.5 µM [inhibitor, partial curve]",–
NC(N)=NCCC[C@H](NC(=O)c1ccccc1)C(=O)Nc1ccc([N+](=O)[O-])cc1,–,inactive: 5.59%
CCc1ccc(C(=O)COC(=O)c2cccnc2Cl)cc1,"inconclusive: 31.6 µM [inhibitor, single point]",–
CC1CN=C(c2cccn2Cc2ccc(F)cc2Cl)O1 (configuration not stated),"inconclusive: 35.5 µM [inhibitor, partial curve]",–
COc1ccccc1CNS(=O)(=O)c1cc(-c2cc(C)no2)ccc1C,–,inactive: 43.3%
O=C(Cc1cccs1)Nc1ccccc1F,"inconclusive: 28.2 µM [inhibitor, single point]",–
O=C(CN1C(=O)S/C(=C/C=C/c2ccccc2)C1=O)Nc1ccc(C(=O)O)cc1,–,inactive: -11.5%
COc1cc([N+](=O)[O-])ccc1NC(=S)NNC(=O)c1ccc2c(c1)OCO2,"inconclusive: 28.2 µM [inhibitor, single point]",–
COc1ccc(CCC(=O)Nc2nc(-c3ccncc3)cs2)cc1,"inconclusive: 17.8 µM [inhibitor, partial curve]",–
Cc1ccc(N2C(=O)CC(Sc3ncn[nH]3)C2=O)cc1C (configuration not stated),"inconclusive: 25.1 µM [inhibitor, partial curve]",–
CCCCCCCn1c(=N)n(CC(=O)c2ccco2)c2ccccc21,"inconclusive: 28.2 µM [inhibitor, partial curve]",–
O=C(CCCC(=O)N1CCN(c2cccc(Cl)c2)CC1)c1ccccc1,"inconclusive: 14.1 µM [inhibitor, partial curve]",–
Cc1ccccc1Cc1c(C)nc2c(-c3ccccc3)c(C)[nH]n2c1=O,–,inactive: -5.26%
CCC(C)c1ccc(NC(=O)CSc2nncn2N)cc1 (configuration not stated),"inconclusive: 8.91 µM [inhibitor, partial curve]",–
Cc1nn(Cc2cccc(C(=O)NC(C)c3ccc(C(C)(C)C)cc3)c2)c(C)c1[N+](=O)[O-] (configuration not stated),"inconclusive: 7.94 µM [inhibitor, partial curve]",–
CCOc1ccccc1CNC(=O)C1CCN(Cc2cc3ccccc3n2Cc2ccccc2)CC1,–,inactive: 49.5%
CC(C)NC(=O)CSc1nnc(COc2ccccc2Cl)o1,"inconclusive: 44.7 µM [inhibitor, single point]",–
CN(C)CCN(C(=O)c1ccc(S(=O)(=O)N(C)c2ccccc2)cc1)c1nc2cc3c(cc2s1)OCO3,"inconclusive: 28.2 µM [inhibitor, single point]",–

SMILES,Potency,"activity change, negative = displacement"
CCOC(=O)N1CCN(C(=O)c2oc3ccc(S(=O)(=O)N(CC)CC)cc3c2C)CC1,–,inactive: -0.996%
Cc1ccc(-n2ccnc(NCc3cccs3)c2=O)cc1C,"inconclusive: 50.1 µM [inhibitor, single point]",–
CCN(C(=O)Cc1cccs1)c1nnc(-c2cc(OC)c(OC)c(OC)c2)s1,–,inactive: -16.6%
O=c1[nH][nH]c(C(F)(F)F)c1C=Nc1ccccc1,–,inactive: -18%
C=C1CCN(c2ccc(C(=O)NCc3ccccc3)cc2[N+](=O)[O-])CC1,"inconclusive: 28.2 µM [inhibitor, partial curve]",–
COc1cccc(/C=C/C(=O)OCC(=O)NCCC2=CCCCC2)c1,"inconclusive: 28.2 µM [inhibitor, partial curve]",–
CCN(C(=O)c1ccc(NC(=O)Cc2ccccc2)cc1)c1ccccc1,"inconclusive: 22.4 µM [inhibitor, partial curve]",–
Cc1nn(Cc2c(F)c(F)c(F)c(F)c2F)c(C)c1NC(=O)c1ccc(COc2cc(Cl)ccc2Cl)cc1,"inconclusive: 2.24 µM [inhibitor, partial curve, poor fit]",–
COc1ccccc1C(=O)NCCc1csc(-c2ccc(C(F)(F)F)cc2)n1,–,inactive: -6.03%
COc1ccc(C(=O)NCC(=O)N/N=C/c2cn[nH]c2-c2ccccc2)cc1,"inconclusive: 15.8 µM [inhibitor, partial curve]",–
O=C(CN1CCCCC1)NCC1(c2ccccc2)CCCC1,"inconclusive: 31.6 µM [inhibitor, partial curve]",–
CC(NS(=O)(=O)c1ccc(Br)cc1)c1ccccc1 (configuration not stated),"inconclusive: 31.6 µM [inhibitor, single point]",–
Cc1ccc(Cn2c(CN(C)Cc3ccccc3)nc3c2c(=O)n(C)c(=O)n3C)cc1,"inconclusive: 39.8 µM [inhibitor, single point]",–
CC[C@H](C)C(=O)O[C@H]1C[C@@H](C)C=C2C=C[C@H](C)[C@H](CC[C@@H]3C[C@@H](O)CC(=O)O3)[C@H]21,"inconclusive: 28.2 µM [inhibitor, partial curve]",–
O=C(NCCSCc1ccccc1)c1ccc(F)cc1,–,inactive: -16.9%
C/C(CC(=O)Nc1ccc(OCc2ccccc2)cc1)=N\NC(=O)C(=O)Nc1cccc(C)c1,"inconclusive: 39.8 µM [inhibitor, partial curve]",–
COc1ccc(C(=O)c2cnc(C(C)C)n2C)cc1,"inconclusive: 39.8 µM [inhibitor, single point]",–
O=C(CC1(O)C(=O)N(CCc2ccccc2)c2ccccc21)c1ccccn1 (configuration not stated),"inconclusive: 22.4 µM [inhibitor, single point]",–
O=C(C(=O)N1CCCc2ccccc21)c1c[nH]c2ccccc12,"inconclusive: 28.2 µM [inhibitor, partial curve]",–
Cc1[nH]c2ccccc2c1/C=N/NC(=O)CCC(=O)NCc1ccccc1,"inconclusive: 25.1 µM [inhibitor, partial curve]",–
CCN1CCCC1CN(Cc1cc2cc(C)cc(C)c2[nH]c1=O)C(=O)Nc1ccccc1OC (configuration not stated),"inconclusive: 20 µM [inhibitor, partial curve]",–
O=C(COC(=O)CCC1CCCC1)Nc1ccccc1OC(F)F,"inconclusive: 28.2 µM [inhibitor, partial curve]",–
Cc1cccc(Cn2nnc3c(=O)[nH]c(C4CCCN(C(=O)c5ccc(C(C)(C)C)cc5)C4)nc32)c1 (configuration not stated),"inconclusive: 2 µM [inhibitor, full curve, poor fit]",–

SMILES,Potency,"activity change, negative = displacement"
COc1ccccc1NC(=O)C1=C(C)Nc2nc(SCc3ccccc3Cl)nn2C1c1cccnc1 (configuration not stated),–,inactive: -17.8%
CCCN1C(C(=O)c2ccccc2)=C(OC(=O)C(C)(C)C)c2ccccc2S1(=O)=O,"inconclusive: 17.8 µM [inhibitor, partial curve]",–
COc1ccc(C(=O)c2coc3ccc(O)c(CN4CCCC4)c23)cc1,"inconclusive: 28.2 µM [inhibitor, partial curve]",–
Cc1c(/C=N/NC(=O)c2cc(=O)[nH]c(=O)[nH]2)c2ccccn2c1C(=O)c1ccccc1,–,inactive: -3.03%
COc1ccc(C2=NN(c3nc(-c4ccccc4)c(CC(=O)O)s3)C(c3ccco3)C2)cc1 (configuration not stated),–,inactive: -0.475%
COC(=O)C1=C(C(=O)OC)SC2(S1)C(C(=O)OC)=C(C(=O)OC)SC1=C2c2cc(C)ccc2NC1(C)C,"inconclusive: 1.58 µM [inhibitor, full curve]",–
C/C(=N/NC(=O)CNC(=O)c1ccccc1F)c1ccc2c(c1)CCCC2,"inconclusive: 50.1 µM [inhibitor, single point]",–
COc1ccc(CN2C(=O)c3ccccc3C2C(=O)NC2CCCCCC2)c(OC)c1 (configuration not stated),"inconclusive: 39.8 µM [inhibitor, single point]",–
O=C(COC(=O)c1cnc(Cl)c(Cl)c1)Nc1ccc(S(=O)(=O)N2CCCC2)cc1,"inconclusive: 39.8 µM [inhibitor, partial curve]",–
O=C(c1cccc(Cl)c1)C1CCCN(C(=O)c2ccc3c(c2)OCO3)C1 (configuration not stated),"inconclusive: 35.5 µM [inhibitor, single point]",–
CN(C)CCCN(C(=O)c1ccc(S(=O)(=O)N2CCc3ccccc32)cc1)c1nc2c(Cl)cccc2s1,"inconclusive: 12.6 µM [inhibitor, partial curve]",–
O=C(/C=C/c1cccc(Br)c1)NC1CCN(Cc2ccccc2)CC1,–,inactive: -11.9%
COc1ccc(Br)cc1CC1C(=O)Nc2ccccc21 (configuration not stated),–,inactive: -6.48%
COc1ccccc1OCC(=O)Sc1ccc(C)cc1,"inconclusive: 50.1 µM [inhibitor, partial curve]",–
CCCCC/C=C\C/C=C\CCCCCCCC(=O)NCC(=O)O,–,inactive: -2.55%
CCOc1ccc(-n2ccnc2SCC(=O)Nc2ccc(OC)cc2OC)cc1,–,inactive: -5.79%
CC(=O)N(\C=C/C=C/C=C1\Sc2ccccc2C1=O)c1ccccc1,–,inactive: -8.33%
CC(C)OCCCn1c(=N)c(C(N)=S)cc2c(=O)n3ccccc3nc21,–,inactive: 161%
O=C(CNCCO)NC12CC3CC(CC(C3)C1)C2,"inconclusive: 31.6 µM [inhibitor, partial curve]",–
CC(C)CC(=O)N(Cc1ccccc1)S(=O)(=O)c1ccc2c(c1)oc(=O)n2C,"inconclusive: 11.2 µM [inhibitor, single point]",–
O=C(CSc1ccc(-c2ccccc2)nn1)N1CCCc2ccccc21,"inconclusive: 50.1 µM [inhibitor, single point]",–
